B1: Caulobacter ParB omega fusion; a variant is named by its letters at X, in order, B8GW30 (parent)
chain: MESVVVGEPGMSEGRRGLGRGLSALLGEVDAAPAQAPGEQLGGSREAPIEILQRNPDQPRRTFREEDLEDLSNSIREKGVLQPILVRPSPDTAGEYQIVAGERAWRAAQRAGLKTVPIMVRELDDLAVLEIGIIENVQRADLNVLEEALSYKVLMEKFERTQENIAQTIGKSXSHVANXMRLLXLPDEVQSYLVSGELTAXHARAIAAAADPVALAKQIIEGGLSVRETEALARKAPNLSAGKSKGGRPPRVKDTDTQALESDLSSVLGLDVSIDHRGSTGTLTITYATLEQLDDLCNRLTRGI

Over roughly 81,000 sequences, “one-hybrid fitness for binding NBS DNA” has its median near -0.1; the highest 2% begin near 0.36. Some of the results follow. Where only a bound is given, the exact number is not on record here.

The experiment covers variants of B1. The experiment is described as follows: one-hybrid fitness for binding NBS DNA (the Noc-binding site; scaled: cognate 1, non-cognate 0); higher = stronger binding. Particulars: with NBS DNA site. In outline: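 The reporter was HIS3, with the binding site 19 bp from the promoter, in E. coli USO used for bacterial one-hybrid selection of Caulobacter ParB libraries with four specificity codons randomised. Growth was on M9 lacking histidine, with 0.1 mM IPTG and 5 mM 3-AT, for 48 hours at 37°C. Illumina sequencing covered plasmids before and after selection; three replicate libraries were pooled and variants with under 10 reads dropped. A fitness score is the log change in variant-to-wild-type read ratio, rescaled to the cognate and non-cognate references.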
Regarding RLDV, the “one-hybrid fitness for binding NBS DNA” value was at most 0.2. To ILFR belongs at most 0.2; to EVRE, at most 0.2; to NRHS, at most 0.2.

As for ERNL, the “one-hybrid fitness for binding NBS DNA” value was at most 0.2. To NTRD belongs at most 0.2.

As for PIDK, the “one-hybrid fitness for binding NBS DNA” value is at most 0.2.

Turning to GAAC, the “one-hybrid fitness for binding NBS DNA” value is at most 0.2.

For the variant KKWS, the “one-hybrid fitness for binding NBS DNA” value was at most 0.2. As for SALT, the “one-hybrid fitness for binding NBS DNA” value is at most 0.2.

As to NCFW, the “one-hybrid fitness for binding NBS DNA” value was at most 0.2.

Regarding EQGG, the “one-hybrid fitness for binding NBS DNA” value was at most 0.2. Turning to MEKM, the “one-hybrid fitness for binding NBS DNA” value is at most 0.2. As for VDGK, the “one-hybrid fitness for binding NBS DNA” value is at most 0.2. The same measure for RYYT: 0.349; for QKNH: 0.286; for QDIV: at most 0.2. To HRNH belongs at most 0.2; to CVDS, at most 0.2. To FSKS belongs at most 0.2; to TRRA, 0.25; to SIKY, at most 0.2. Take NAAD: the “one-hybrid fitness for binding NBS DNA” value is at most 0.2. To VNCG belongs at most 0.2; to KRCS, 0.387. On to RFGY, for which the “one-hybrid fitness for binding NBS DNA” value was at most 0.2.

Turning to WPRA, the “one-hybrid fitness for binding NBS DNA” value was at most 0.2.

As to PPHW, the “one-hybrid fitness for binding NBS DNA” value is at most 0.2. In the case of VHNM, the “one-hybrid fitness for binding NBS DNA” value was at most 0.2. Consider QVWS, for which the “one-hybrid fitness for binding NBS DNA” value was at most 0.2. Consider LYNL, for which the “one-hybrid fitness for binding NBS DNA” value is at most 0.2. The same measure for TQHH: at most 0.2; for MVPK: at most 0.2.

On to LEAS, for which the “one-hybrid fitness for binding NBS DNA” value was at most 0.2.

Consider HTMF, for which the “one-hybrid fitness for binding NBS DNA” value was at most 0.2. In the case of SNMC, the “one-hybrid fitness for binding NBS DNA” value was at most 0.2. As to YGCT, the “one-hybrid fitness for binding NBS DNA” value is at most 0.2. On to EPRI, for which the “one-hybrid fitness for binding NBS DNA” value is at most 0.2. The same measure for HRHY: at most 0.2; for PILL: at most 0.2. Regarding GYKT, the “one-hybrid fitness for binding NBS DNA” value was at most 0.2. Turning to GPSV, the “one-hybrid fitness for binding NBS DNA” value is at most 0.2. The same measure for SKME: at most 0.2; for RDKV: at most 0.2.

Turning to NASH, the “one-hybrid fitness for binding NBS DNA” value was at most 0.2.

In the case of SSAA, the “one-hybrid fitness for binding NBS DNA” value is at most 0.2. The same measure for HSPF: at most 0.2; for CFIV: at most 0.2. The same measure for VYTG: at most 0.2; for PVLV: at most 0.2; for NVDA: at most 0.2.

GQAL: the “one-hybrid fitness for binding NBS DNA” value is at most 0.2.

As to TICR, the “one-hybrid fitness for binding NBS DNA” value is at most 0.2. The same measure for AEHI: at most 0.2.

For the variant ERTC, the “one-hybrid fitness for binding NBS DNA” value is at most 0.2.

Turning to YPMR, the “one-hybrid fitness for binding NBS DNA” value was at most 0.2.

As to MMAR, the “one-hybrid fitness for binding NBS DNA” value is at most 0.2. To QVRL belongs at most 0.2. To ATML belongs at most 0.2; to DHRM, at most 0.2.

Turning to TEWR, the “one-hybrid fitness for binding NBS DNA” value was at most 0.2.

For NPHG, the “one-hybrid fitness for binding NBS DNA” value is at most 0.2. As for DGWC, the “one-hybrid fitness for binding NBS DNA” value is at most 0.2. Consider PILC, for which the “one-hybrid fitness for binding NBS DNA” value is at most 0.2. To RAGE belongs at most 0.2. The same measure for RRAM: 0.306; for SCQG: at most 0.2; for ARPM: at most 0.2.

Consider MTNS, for which the “one-hybrid fitness for binding NBS DNA” value was at most 0.2. The same measure for QAHM: at most 0.2; for TWIC: at most 0.2. To YSKK belongs at most 0.2; to KIRV, at most 0.2; to KTTM, at most 0.2. As for AVLS, the “one-hybrid fitness for binding NBS DNA” value is at most 0.2. KACL: the “one-hybrid fitness for binding NBS DNA” value is at most 0.2.

As to FTDF, the “one-hybrid fitness for binding NBS DNA” value is at most 0.2.

The values are drawn from a collection of fitness landscapes (doi:10.1016/j.celrep.2020.107928).
